Where “and” joins values, the source holds several entries; their conditions need not be identical. Identical values can stand only once. Hit rate of the full screen: of about 390,000 compounds, about 4,000 (1%) were called active. The inconclusive results got no clear call from the source; some entries with a clear call stand among them for comparison. Calls follow the shape of the dose curve; as a rule, active = well fitted inhibition curve with a large enough effect; inconclusive = small, poorly fitted or top-dose-only effect; inactive = no such curve, though single readings can be large or run the other way. Potencies beside an inconclusive call are fits to weak or partial responses and may not hold up. More than one record can exist for a structure, and the calls need not agree.
molecular target: Thioredoxin reductase 1, cytoplasmic (Rattus norvegicus) (UniProt O89049); assay: qHTS Assay for Inhibitors of Mammalian Selenoprotein Thioredoxin Reductase 1 (TrxR1): qHTS; conditions: recombinant rTrxR1, NADPH fluorescence consumption, selenite substrate; series mostly up to 114 µM; also: nearly all actives have a fitted effect of over 65% in size
Chain of UniProt O89049 (O89049 whole entry, looked up): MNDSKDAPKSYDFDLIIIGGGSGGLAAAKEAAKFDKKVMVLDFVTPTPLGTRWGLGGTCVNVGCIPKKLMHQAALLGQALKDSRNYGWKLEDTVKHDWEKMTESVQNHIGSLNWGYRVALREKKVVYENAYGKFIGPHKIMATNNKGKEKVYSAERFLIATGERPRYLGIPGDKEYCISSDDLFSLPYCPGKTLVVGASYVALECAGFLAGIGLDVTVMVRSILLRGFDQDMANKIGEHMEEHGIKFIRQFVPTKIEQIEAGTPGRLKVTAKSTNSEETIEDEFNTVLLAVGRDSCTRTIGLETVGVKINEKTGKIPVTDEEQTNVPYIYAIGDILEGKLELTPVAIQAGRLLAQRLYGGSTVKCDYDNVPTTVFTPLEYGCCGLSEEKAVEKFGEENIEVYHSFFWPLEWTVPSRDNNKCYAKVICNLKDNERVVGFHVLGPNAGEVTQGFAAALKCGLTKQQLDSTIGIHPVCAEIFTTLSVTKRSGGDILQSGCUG
Summary of the method: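 Rat TrxR1 (90 nM in the dispensed reagent) was pre-reduced with 400 uM NADPH for 5 min at room temperature, then incubated with compound for 15 min. After 400 uM selenite was added, NADPH fluorescence (Ex 340/Em 450 nm) was followed for 8 min.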
% is scaled to controls: 0 for no effect and ±100 for the full control effect; potency is read from the fitted curve at half-maximal effect; tags tell the direction and shape of the fitted curve.

SMILES	Potency	activity change, negative = inhibition
O=C(CC1C(=O)NCCN1Cc1ccccc1C(F)(F)F)NC1CCCCC1 (stereo not drawn)	inconclusive: 70.8 µM [inhibitor, partial curve]	
C=CCn1c(-c2csc3c2CCC(C)C3)n[nH]c1=S (stereo not drawn)	inactive	
O=C(O)/C=C/C(=O)NNC(=O)c1cc(-c2ccccc2)n[nH]1	active: 6.31 µM	
CN1CCc2c(sc3nc(SCC(=O)N4CCOCC4)n(-c4ccc(Cl)cc4)c(=O)c23)C1	inconclusive: 79.4 µM [inhibitor, single point]	
COc1cc2[nH]c(=S)n(CCN3CCOCC3)c(=O)c2cc1OC	inconclusive: 39.8 µM [inhibitor, single point]	
C#CCOCCOCCOCCNc1nc(N2CCN(C(=O)C([C@@H](C)O)n3cc([C@@H](N)CCCCN)nn3)CC2)nc(N2CCN(C(=O)[C@H](CCCCN)n3cc([C@@H](N)[C@H](C)CC)nn3)CC2)n1 (stereo partly drawn)	inconclusive: 39.8 µM [inhibitor, full curve]	
COc1ccc(-c2ccccc2NC(=O)C2CCCN(Cc3ccco3)C2)cc1 (stereo not drawn)	inconclusive: 70.8 µM [inhibitor, partial curve, poor fit]	
N#C/C(=C\c1ccc(O)c(O)c1)C(=O)NCc1ccccc1	inconclusive: 28.2 µM [inhibitor, full curve] and inconclusive: 16.8 µM [inhibitor, partial curve, poor fit]	
CCCC(c1nnnn1C1CCCCC1)N1CCN(C2CCCC2)CC1 (stereo not drawn)	inactive	
CC(C)c1ccc(N2C(=O)CC(Sc3ncn[nH]3)C2=O)cc1 (stereo not drawn)	inconclusive: 3.98 µM [inhibitor, single point]	
CN(C)CCCn1c2c3ccccc3ccc2c2oc(=O)c3ccccc3c21	inconclusive: 56.2 µM [inhibitor, partial curve, poor fit]	
NC(=O)c1oc2ccccc2c1NC(=O)C1COc2ccccc2O1 (stereo not drawn)	inactive	
NC(=O)CC[C@H](NC(=O)c1ccc(F)cc1)C(=O)OCC(=O)NCc1ccc(F)cc1	inactive	
O=C1ON=C(c2ccccc2)/C1=C/c1ccc(O)cc1	active: 14.1 µM	
CC(C)N1CCC(=NNc2ccc(S(=O)(=O)N3CCOCC3)cc2[N+](=O)[O-])CC1	inconclusive: 79.4 µM [inhibitor, partial curve]	
O=C(Nc1ccc(F)cc1)c1cccnc1NCCc1ccccc1	inactive	
CCCC1=[N+](CC(=O)c2ccc(C)cc2)CCn2cccc21	inconclusive: 14.1 µM [inhibitor, partial curve, poor fit]	
CCc1cc(C(=O)N2CCc3c([nH]c4ccccc34)C2c2ccc(OC)cc2F)no1 (stereo not drawn)	inactive	
O=C(C1=C[C@@H](c2ccccc2)C[C@@H](OCc2ccc(CO)cc2)O1)N1CCCCCCC1	inconclusive: 56.2 µM [inhibitor, partial curve, poor fit]	
C(=NOCCc1ccccc1)c1ccccn1		inactive: -0.101% [at 2.29 µM]
COc1ccc(/C=N\NC(=O)c2ccccc2F)cc1COc1ccc(F)cc1	inconclusive: 70.8 µM [inhibitor, partial curve]	

SMILES	Potency	activity change, negative = inhibition
CC(=O)C1=C(O)C(=O)N(CCN2CCOCC2)C1c1ccc(N(C)C)cc1 (stereo not drawn)	inconclusive: 70.8 µM [inhibitor, single point]	
C/C(Cl)=C\Cn1c(O)c(N=NC(N)=S)c2cc(Br)ccc21	inactive	
CC(=O)c1sc(N/N=C\c2ccc(C)cc2)nc1C	inconclusive: 89.1 µM [inhibitor, single point]	
C[C@H](CO)N1C[C@H](C)[C@@H](CN(C)Cc2ccncc2)Oc2ccc(NC(=O)Cn3cnnn3)cc2C1=O	inconclusive: 17.8 µM [inhibitor, full curve, poor fit]	
Cc1cccc(N=Nc2c(C)nn(-c3ccccc3)c2N)c1C	inconclusive: 89.1 µM [inhibitor, single point]	
C=CCSc1nnc(N2C(=O)C(O)=C(C(=O)c3ccco3)C2c2ccccc2F)s1 (stereo not drawn)	active: 50.1 µM	
O=C1c2ccccc2C(=O)N1CCSc1nnc(-c2ccco2)n1Cc1ccccc1	inconclusive: 22.4 µM [inhibitor, partial curve, poor fit]	
c1ccc(-c2onc(-c3ccco3)c2-c2ccc3[nH]ccc3c2)cc1	active: 28.2 µM	
O=C(Cc1ccccc1)Nc1sc2c(c1C(=O)Nc1ccccc1)CCCCC2	active: 39.8 µM	
Cc1cc(C(=O)Nc2ccc(S(=O)(=O)Nc3onc(C)c3C)cc2)c(C)o1	inconclusive: 56.2 µM [inhibitor, partial curve, poor fit]	
CC(C)=CC(=O)Nc1ccc2c(c1)OCO2	inactive	
Cc1cc(C)c(C)c(S(=O)(=O)N2CCN(c3ccccn3)CC2)c1C	inactive	
COc1cc(/C=C(\C#N)C(=O)Nc2ccccn2)ccc1O	inconclusive: 20 µM [inhibitor, single point]	
N#Cc1c(N2CCCC(O)C2)nc(N)c2c(N)nc3c(c12)CC(=O)N3C12CC3CC(CC(C3)C1)C2 (stereo not drawn)	inconclusive: 14.1 µM [inhibitor, partial curve, poor fit]	
CC1CCCCN1C(=O)Cn1c(=O)n(-c2ccc(Cl)cc2)c(=O)c2c3c(sc21)CCC3 (stereo not drawn)	inactive	
O=C(NC12CC3CC(CC(C3)C1)C2)c1cccnc1Cl	inconclusive: 0.891 µM [inhibitor, full curve]	
CCN1CCN(C(c2ccc(OC)cc2)c2c(O)cc(C)n(Cc3ccco3)c2=O)CC1 (stereo not drawn)	inconclusive: 12.6 µM [inhibitor, partial curve, poor fit]	
COc1ccccc1-c1nn(Cc2ccccc2)cc1C(=O)NCC(c1ccco1)N1CCCC1 (stereo not drawn)	inactive	
COc1ccc(-n2c(O)c(/C=N/n3cnnc3)c3ccccc3c2=O)cc1	inconclusive: 70.8 µM [inhibitor, partial curve, poor fit]	
C#CCOc1ccc(/C=C2/C(=O)ON=C2C)cc1Br	inconclusive: 22.4 µM [inhibitor, single point]	
O=C(C1=C[C@H](c2ccc(C(F)(F)F)cc2)C[C@H](OCCCCO)O1)N1CCN(Cc2ccccc2)CC1	inconclusive: 35.5 µM [inhibitor, partial curve, poor fit]	

SMILES	Potency	activity change, negative = inhibition
COc1ccc([N+](=O)[O-])cc1C1NN=C(c2ccccc2O)S1 (stereo not drawn)	inconclusive: 17.8 µM [inhibitor, single point]	
Cc1ccc(S(=O)(=O)CC(=O)c2cc3cccc(C)c3oc2=O)cc1	inconclusive: 70.8 µM [inhibitor, partial curve]	
CN1N=C(N)c2cn(C3OC(COP(=O)(O)O)C(O)C3O)c3ncnc1c23 (stereo not drawn)		inactive: 13.4% [at 11.4 µM]
CN(C1CCCC1)C1CCN(C(=O)CNC(=O)/C=C/c2ccc(F)cc2)CC1	inconclusive: 39.8 µM [inhibitor, single point]	
C#CCOC(=O)c1ccccc1C(=O)n1nnc2ccccc21	inconclusive: 14.1 µM [inhibitor, full curve, poor fit]	
CC(NCc1ccccc1Cl)C(=O)Nc1ccc(S(=O)(=O)N2CCCC2)cc1 (stereo not drawn)	inactive	
COc1ccc(C(C)=O)cc1COC(=O)Cn1cnc2ccccc2c1=O	active: 17.8 µM	
COc1cc(/C=C2\CC/C(=C\c3cc(OC)c(O)c(OC)c3)C2=O)cc(OC)c1O	inconclusive: 11.2 µM [inhibitor, partial curve, poor fit]	
Cc1cc(SCNC(=O)c2ccccc2)ncn1	inconclusive: 11.2 µM [inhibitor, partial curve, poor fit]	
O=C1/C(=C\c2ccc(O)c(O)c2)C(c2ccccc2)=NN1c1ccccc1	inconclusive: 35.5 µM [inhibitor, partial curve, poor fit]	
CN1/C(=C/C(=S)NC(=O)C2(C)CC2(Cl)Cl)C(C)(C)c2ccccc21 (stereo not drawn)	inconclusive: 70.8 µM [inhibitor, partial curve, poor fit]	
CC1=CC(=C2C(=O)c3ccccc3C2=O)C=C(C)N1C	inactive	
COc1cc(/C=N/N(C)C2=NS(=O)(=O)c3ccccc32)cc(OC)c1OC	inconclusive: 89.1 µM [inhibitor, single point]	
COC(=O)CCCC1=CC2=C(c3ccccc3)C(=O)C(C)(OC(=O)C3CCCC3)C(=O)C2=CN1C(CO)CO (stereo not drawn)	inconclusive: 50.1 µM [inhibitor, partial curve, poor fit]	
CC(=O)Nc1ccc(NC(=O)C(C)OC(=O)c2ccccc2C(=O)c2ccc(Cl)c([N+](=O)[O-])c2)cc1 (stereo not drawn)	inconclusive: 79.4 µM [inhibitor, single point]	
CCN(CC)C(=O)CSC1=C(C#N)C(c2ccco2)C(C(=O)OCCOC)=C(C)N1 (stereo not drawn)	inconclusive: 50.1 µM [inhibitor, partial curve]	
Cc1nnc(N2CCC(C(=O)N3CCCCC3)CC2)c2nn(-c3ccc(Cl)cc3)c(C)c12	inconclusive: 89.1 µM [inhibitor, partial curve, poor fit]	
O=C(CSc1nnc(-c2cc3ccccc3cc2O)n1Cc1ccco1)N1CCc2ccccc2C1	inconclusive: 11.2 µM [inhibitor, partial curve]	
CNc1ccccc1C(C)(C)c1cc(-c2cccc(Br)c2)no1	inactive	
Cc1ccc(-c2csc(NC(=O)C3CC(=O)N(c4ccc5c(c4)OCCO5)C3)n2)o1 (stereo not drawn)	inconclusive: 25.1 µM [inhibitor, full curve, poor fit]	
NC1=NC(=O)/C(=C/c2cn(Cc3ccccc3)c3ccccc23)S1	inconclusive: 89.1 µM [inhibitor, single point]	

— PubChem BioAssay AID588453 (National Center for Advancing Translational Sciences (NCATS), 2011)
